Laboratory results published in PubChem BioAssay (NCI).
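Cells were grown in 96-well plates and exposed to each compound for 48 hours at five concentrations; endpoints were interpolated linearly between bracketing concentrations, or set to the highest concentration if not reached. Abbreviation: GI50, concentration required for 50% inhibition of growth. TGI marks complete inhibition of growth.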

These compounds were tested on NCI-H322M lung (assay: DTP human tumour cell line panel, 48 h).

| SMILES | GI50 | TGI |
| --- | --- | --- |
| CCN1CCN(c2nc(NNC(=O)c3ccccc3)nc(N3CCN(C(c4ccccc4)c4ccccc4)CC3)n2)CC1 | 4.48 µM | 30.1 µM |
| CC(=O)O[C@H]1C(=O)[C@@]2(C)[C@H]([C@H](OC(=O)c3ccco3)[C@]3(O)C[C@H](OC(=O)[C@H](O)[C@@H](NC(=O)c4ccccc4)c4ccccc4)C(C)=C1C3(C)C)[C@]1(OC(C)=O)CO[C@@H]1C[C@@H]2O | – | > 25 µM |
| COc1cc2c(cc1OC)C(=O)/C(=C/c1ccc(N(C)C)cc1)CC2 | – | > 10 µM |
| CC(C)=Nn1cnc2c1NC(C)(C)N=C2C(N)=O | – | > 10 µM |
| O=c1c2cc(I)ccc2nc(-c2cccs2)n1O | – | 80.6 µM |
| C/C(Nc1ccc(Cl)cc1)=C1/CCOC1=O | – | > 100 µM |
| O=C1C2CC[C@@H]3C(=O)C(Cl)(Cl)[C@@H]3CCC2C1(Cl)Cl (some centres not stated) | – | 85.7 µM |
| O=C(/C=C(\[O-])c1ccccc1)CCCCCCC(=O)/C=C(\[O-])c1ccccc1.O=C(/C=C(\[O-])c1ccccc1)CCCCCCC(=O)/C=C(\[O-])c1ccccc1.O=C(/C=C(\[O-])c1ccccc1)CCCCCCC(=O)/C=C(\[O-])c1ccccc1.[Nd+3].[Nd+3] | > 50 µM | > 50 µM |
| N#CCCN(CCC#N)c1ccc(C=Nc2ccc(F)cc2)cc1 | – | > 100 µM |
| Cc1cc(C)n2c(nc3ccccc32)c1C#N | – | > 100 µM |
